Results from PubChem BioAssay AID1963576 (National Center for Advancing Translational Sciences (NCATS), 2024).
Hit rate of the full screen: of about 46,000 compounds, about 60 (0.1%) were called active. Inconclusive results (about 3%) are left out. The call rests on the fitted dose curve; in most records, active means well fitted inhibition curve with a large enough effect; inconclusive means small, poorly fitted or top-dose-only effect; inactive means no such curve, though single readings can be large or run the other way. The list shows a part of the results.

Assay: Primary qHTS assay for Inhibitors of ovarian cancer metastasis using an organotypic tumor microenvironment (TME) model. Further: nearly all actives have a fitted effect of over 65% in size.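 On activity change, negative = inhibition: plate controls were DMSO wells for no effect and tomatine positive control wells for full effect.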
Details: SKOV3ip1-GFP adhesion/invasion on 3D omental model, fluorescence; series mostly up to 45.8 µM; activity change, negative = inhibition: at the top concentration
How it was run: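 A 3D layer of primary human omental fibroblasts, mesothelial cells, fibronectin and collagen I, grown 48 hr, received SKOV3ip1-GFP cells in serum-free medium plus compounds at 0.36-46 umol/L. After 2 hr RT and 16 hr 37 C, fixed adherent GFP cells were counted; normalized to DMSO and tomatine.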

outcome, inactive:
COc1ccc(CNC(=O)Nc2ccc3c(c2)N(C)C(=O)c2ccccc2S3)cc1, CCCCNC(=O)CSc1nc2ccccc2nc1Cc1ccc(C)cc1, CC(=O)c1cccc(NC(=O)CN2C=NS(=O)(=O)c3ccc(C)cc32)c1, Cc1cccc(CNS(=O)(=O)c2ccc(-c3cnc(C4CC4)o3)cc2)c1, CCn1c(=O)c2cc(C(=O)Nc3cc(OC)c(OC)c(OC)c3)sc2c2ccccc21, CC1=C(C(=O)Nc2ccccc2C)C(c2ccncc2)n2nc(SCc3ccccc3Cl)nc2N1 (stereo not given), CC(C)CCNC(=O)c1ccc2c(c1)NC(=O)C(CS(=O)(=O)Cc1ccc(F)cc1)N2 (stereo not given), CCOc1ccc(NC(=O)C2(c3cccs3)CCOCC2)cc1, CCOC(=O)c1c(C)[nH]c(CCC(=O)Nc2cc(Cl)ccc2OC)c1C, O=C(CN1C(=O)COc2ccc(S(=O)(=O)NC3CCCC3)cc21)Nc1ccc(Cl)cc1F, COc1ccc(OC)c(S(=O)(=O)Nc2ccc3c(c2)n(C)c(=O)n3C)c1, CCOC(=O)c1c(C)oc2ccc(N(C(=O)c3ccncc3)S(=O)(=O)c3ccc(CC)cc3)cc12, COc1cc(OC)cc(C(=O)NCCc2csc3nc(-c4ccccc4F)nn23)c1, Cc1ccc(OCCSc2nc3ccc(NC(=O)c4cccs4)cc3s2)cc1, Cc1nc(N2CCOCC2)c2c(C(=O)NCc3ccc(Cl)cc3)c(C)oc2n1, COc1ccc(CNc2nc(-c3ccc(Cl)cc3)nn2S(=O)(=O)c2ccc(C)cc2)cc1, CCC(CC)c1nn2c(=O)cc(COc3ccc(NC(=O)c4cccc(C)c4)cc3)nc2s1

Activity change, negative = inhibition, inactive:
CCc1ccc(NC(=O)c2sc3ncnc(N(C)C4CCCCC4)c3c2C)cc1 2.39%, O=C(NCc1ccc2c(c1)CCN2C(=O)c1ccccc1)c1cc2ccccc2[nH]1 -1.28%, O=C(c1cccs1)c1cn(CCOc2ccccc2F)c2ccccc12 -4.54%, COc1cccc(CN2C(=O)c3ccccc3Sc3ccc(C(=O)N(C)Cc4ccccc4)cc32)c1 0.707%, COc1ccc(-c2nnc(SCc3cc(=O)c4cc(C)cc(C)c4[nH]3)n2C)cc1 -0.519%, COc1ccccc1NC(=O)c1cc2ccc3cccnc3c2[nH]1 0.168%, CCOC(=O)c1ccccc1NC(=O)c1c2c(nc3ccccc13)C(=O)N(C1CCCCC1)C2 2.85%, CC(C)CN(C[C@@H](O)[C@H](Cc1ccccc1)NC(=O)O[C@H]1CO[C@H]2OCC[C@H]21)S(=O)(=O)c1ccc(N)cc1 -8.68%, CC(=O)c1cccc(NC(=O)c2nc3ccccc3n(C)c2=O)c1 -8.18%, COc1cccc(CNC(=O)c2ccc3nc(-c4ccc(F)cc4)c(-c4ccc(F)cc4)nc3c2)c1 1.43%, COc1cc(C2c3c(-c4ccccc4O)n[nH]c3C(=O)N2CCO)ccc1OCc1ccccc1 (stereo not given) 18.9%, CC(C)c1ccc(S(=O)(=O)c2nnn3c2nc(N2CCN(C)CC2)c2sccc23)cc1 -2.13%, CCCc1cc(=O)n2[nH]c(NC(=O)c3ccc(C(C)(C)C)cc3)nc2n1 1.44%, COc1cc(NC(=O)C2CCN(c3cnc4ccccc4n3)CC2)cc(OC)c1OC -2.75%, CC1=C(C(=O)Nc2cccnc2)C(c2cccc(Br)c2)n2nc(SCc3ccccc3)nc2N1 (stereo not given) 18.7%, CCOc1ccc(CNC(=O)C2CCN(S(=O)(=O)N3CCC(C)CC3)CC2)cc1OC 8.69%, Cc1ccc(CNC(=O)COCc2cc(-c3cccs3)on2)cc1 11.8%, COc1ccc(C(=O)Nc2nc3nc(C)c(Cc4ccccc4)c(=O)n3[nH]2)cc1OC -2.7%, Cn1ccc2cc(S(=O)(=O)N3CCCC(C(=O)NCc4ccccc4)C3)ccc21 (stereo not given) -4.61%, Cc1cccc(-c2noc(-c3ccccc3NC(=O)C3CC(=O)N(c4ccccc4C)C3)n2)c1 (stereo not given) -6.42%, COc1ccc(S(=O)(=O)Nc2cccc(-c3ccc(N4CCC(C)CC4)nn3)c2)cc1OC -10.6%, COc1ccc(NC(=O)CCSc2nc(-c3ccc(OC)cc3)cc(C(F)(F)F)n2)cc1 6.71%, O=C(NCCS(=O)(=O)N1CCN(c2ccccc2)CC1)C1CC(=O)N(c2ccc(F)cc2)C1 (stereo not given) -26.9%, Cc1cc(-c2ccc(C)c(S(=O)(=O)NC(c3cccs3)C(C)C)c2)on1 (stereo not given) -15.6%, O=C(COc1ccc(F)cc1)OCc1cc(=O)n2nc(C3CCCCC3)sc2n1 -14.4%, COc1ccc(C(C(=O)NCc2ccccc2)N(C(=O)Cn2nnc3ccccc32)c2cccc(OC)c2)cc1 (stereo not given) -0.0494%, CC1=C(C(=O)N2CCN(c3cc(C)ccc3C)CC2)C2(CCC(C)CC2)OC1=O (stereo not given) -28.7%, Cc1ccc(NC(=O)Cn2cc(C(=O)C3CC3)c3ccccc32)c(C)c1 -14.5%, CCc1nnc(SCc2c(F)cccc2Cl)c2cc3sccc3n12 -2.72%, COc1ccccc1C(=O)Nc1nc2nc(C)cc(=O)n2[nH]1 -2.6%, Cc1cc(C)c2sc(NC(=O)c3ccc(S(=O)(=O)N4CCCC4)cc3)nc2c1 -5.97%, CCOC(=O)c1cccc(NC(=O)CCc2nc3cccnc3n2-c2ccccc2)c1 -11.2%, O=C(O)CSCC(=O)NC1CCSC1=O (stereo not given) 16.6%, Cc1cc2c(F)c(Oc3ncnn4cc(OC[C@@H](C)O)c(C)c34)ccc2[nH]1 7.6%, Cc1sc(-n2cccc2)c(C(C)NC(=O)Nc2cccc(C(F)(F)F)c2)c1C (stereo not given) -0.439%, CN(C)S(=O)(=O)N(CC(=O)Nc1ccc(C(F)(F)F)cc1)c1ccccc1 -9.95%, CCc1ccc(NC(=O)c2nc3nc(C)cc(C(F)F)n3n2)cc1 -6.31%, COc1ccccc1CNS(=O)(=O)c1cc(Br)cc2c1N(C(=O)C1CC1)CC2 -1.23%, COc1ccc(CNC(=O)c2ccc3c(c2)N(Cc2cc(C)ccc2C)C(=O)CS3)cc1 0.766%, O=C(CCC(=O)N1CCSc2ccccc21)Nc1ccc(Cl)cc1 -5.39%, COc1cccc2c1C(=O)c1c(O)c3c(c(O)c1C2=O)C[C@@](O)(C(C)=O)C[C@H]3O[C@H]1C[C@H](N)[C@H](O)[C@H](C)O1 1.76%, COc1cccc(CNC(=O)c2cc(-c3ccc(Cl)cc3)n[nH]2)c1 -5.69%, CCOc1cccc(C(=O)N(Cc2ccc(C)o2)C2CCS(=O)(=O)C2)c1 (stereo not given) 4.73%
